The record followed here is PMC12136788.

This is one part of the list.

T1: UNK ZnF1-3 (human, UniProt Q9C0B0 31-174)
T1 sequence: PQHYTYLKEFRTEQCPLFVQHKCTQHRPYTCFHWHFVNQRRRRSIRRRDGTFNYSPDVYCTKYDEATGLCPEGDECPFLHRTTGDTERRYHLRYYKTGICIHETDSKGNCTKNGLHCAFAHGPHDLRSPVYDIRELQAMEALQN

B1: 80668181_80669720_2026_CDS_ENSMUSG00000035051_ENSMUST00000038166|mouse|control|control (ssRNA)
RNA: GGGAGUUCUACAGUCCGACGAUCAGAGAUCCGUCGGGGUUGGGUACAGAUGAUGUUGGCCACCCUCUCGGGUGGCCCAUUCAGAGAAUUAUCCAGGAUAAACUGUGGAAUCUGUGUGGUUUUCCCACAUCCAGUCAUACCACUCAACAGAGGAUUGAGCAUCA
B2: chr5:145858064:145858065:+_ENSG00000113649_ENST00000394421|hu_mus|FALSE|FALSE (ssRNA)
RNA: GGGAGUUCUACAGUCCGACGAUCCCACAUAGAAAGGCGGGUGGUGGGAUUGUAAAAGAAGACCCUCUCAUCACCAGUCCAAACAACACACCAUGGAGUACCAGGAAUAGGAGUAGUAGCUACUGGCUUUGCCUUCUGGGCAGCCAACAGAGGAUUGAGCAUCA
B3: chr17:58740566:58740567:+_ENSG00000170836_ENST00000305921|hu_mus|FALSE|FALSE (ssRNA)
RNA: GGGAGUUCUACAGUCCGACGAUCUUUUUGGUCCAUGAUAGUAUUUGUUGAAUUGGUUGGAAUGAGGCCAACUGACAGAGUAUUAUUCAAAGAAUCAUGAAUCCUUAAAGUCAGGGCUUUGGGGCAAUUUUCUUCAAGUGUCUCCAACAGAGGAUUGAGCAUCA
B4: chr3:31621302:31621303:+_ENSG00000163527_ENST00000295770|hu_mus|motif|central (ssRNA)
RNA: GGGAGUUCUACAGUCCGACGAUCUAAAAUCCAAUGAAUAAGGCCAGCUGUUAUCAUCAACCCUGGGUAAACGGUGCCACCCACGGUUCUUCCCAGUGGGUACCAUGCUCUUUCAUCAAACCAAUUUAGAAACUCAUAGAAUCCCAACAGAGGAUUGAGCAUCA
B5: chr10:24632779:24632780:+_ENSMUSG00000019984_ENSMUST00000092646|mus_hu|FALSE|FALSE (ssRNA)
RNA: GGGAGUUCUACAGUCCGACGAUCCAUAGCUCUAAUAAGUUGUUAUGAAUAUGAACAACAUGUAUCUUACUUGAUCUCUUAGAGACAAAAAUAUAGAUAGGGAGAUGGGAGUUAUAAGGUGUCAACAGAUUCAUCAUUUGAAUCCAACAGAGGAUUGAGCAUCA
B6: chr14:66974463:66974464:+_ENSMUSG00000022044_ENSMUST00000074523|mus_hu|mus_mus_mus_hu_False|18_88 (ssRNA)
RNA: GGGAGUUCUACAGUCCGACGAUCUUGUAGGACGACUUAUUCAGGGGAUCAGACAAGAAGCAGGAGCAGAACAAGGACACCAGCGGGAGCUCCUUCAUCUUCUCUUUGUAGGCAGCAAGAGUCAUGUUUCUGGGAUCUGGUGGCCAACAGAGGAUUGAGCAUCA
B7: chr2:71279510:71279511:+_ENSMUSG00000027018_ENSMUST00000028408|mus_mus|motif|central (ssRNA)
RNA: GGGAGUUCUACAGUCCGACGAUCUCAUAAACUCUAGACAGUAUUUUAAAAUAUACAAUCUCUCAAAAGGAAAUAUUCCACGGAGGAGAACAUAGAUAACUUUAGGGUCAUCAGAGGUUCACAGCACGAUGCACAGAAAUCUGCCAACAGAGGAUUGAGCAUCA
B8: chr4:95690885:95690886:+_ENSMUSG00000028572_ENSMUST00000156910|mus_mus|mus_mus_mus_hu_False|1_28 (ssRNA)
RNA: GGGAGUUCUACAGUCCGACGAUCUUUAGAAAAUGUUAAAUACCAUGCUAAAAUAUUUUCAAAGGCUUAUUUUAUUUUACCAGAAGUCACAGGCAAGCAGACACUACAAACAUACAAGAAAAUGAAACUCAACAAUAAAAUGUACAACAGAGGAUUGAGCAUCA
B9: chr2:113286301:113286302:+_ENSG00000114999_ENST00000233336|hu_mus|FALSE|FALSE (ssRNA)
RNA: GGGAGUUCUACAGUCCGACGAUCAGCCGGCUGCUGCGGCACCUGCUCCGUGUCCGGGGGUGGGAAGACACUGGAUAUGGCUAUGUCCACGAUGCCCUGGCACAGUUCUGCAUAGAGUUUCUGGGCACACGCUGGGGCGCCGUUCAACAGAGGAUUGAGCAUCA
B10: chr18:43482012:43482013:-_ENSMUSG00000024501_ENSMUST00000121805|mus_mus|motif|central (ssRNA)
RNA: GGGAGUUCUACAGUCCGACGAUCGGAUUGAUCCCCAAAUUUGAAUUGUAACUCAAAACUUCAUUCCAUUCUUUUUCUUCGGAAGUCUCCUUUAAAAUGAAAGCACCAUGAGAGCUUUAAAGAAGCAAGAUUCCUCUUCUGAGGCAACAGAGGAUUGAGCAUCA
B11: chr14:54897011:54897012:-_ENSG00000100528_ENST00000216416|hu_hu|motif|central (ssRNA)
RNA: GGGAGUUCUACAGUCCGACGAUCCACCAAAACAUAGAUCAUGCCAUAUAGGUAGUAAAAAAAUGCUAGAAGAUAAAAAGCGGAUUUGCACCAUCCUUCCUUCUGACAAUAUGCUAGAAUAUCUGCAUUCAUGAUGGUUGUAGGCAACAGAGGAUUGAGCAUCA
B12: chr5:21408736:21408737:-_ENSMUSG00000042453_ENSMUST00000161356|mus_hu|mus_mus_mus_hu_False|48_98 (ssRNA)
RNA: GGGAGUUCUACAGUCCGACGAUCGUUGACAGAGUUGUAAAUGGUGGCUUCAUGGAACUGGAAAGGGGAGCAGCCAAUGCUGUUAGAAGAGGAAGGUAGGCACUGGGUCUGUACGAGCUGCCAGGAAUCCGAUCUUGCAUCCUUCAACAGAGGAUUGAGCAUCA
B13: chr17:60770872:60770873:+_ENSG00000011028_ENST00000303375|hu_hu|hu_hu_hu_mus_True|8_88 (ssRNA)
RNA: GGGAGUUCUACAGUCCGACGAUCUCUUUAAAAAAAAAAAAAAAAAGUUUAAAAACAAUAGCACAUUUCGAGAAUCAAGAACUACAAUAGAGGGUCCGCUUUGAGUUUUUGUUCACAUCGUCCUGCAACGCUGUCGCGGGACUGCAACAGAGGAUUGAGCAUCA
B14: chr11:134117569:134117570:+_ENSG00000151502_ENST00000281187|hu_mus|motif|central (ssRNA)
RNA: GGGAGUUCUACAGUCCGACGAUCAGAAACAUGUAAACACUGCAGCUUCUUAAUUACAAGUUGCACUGCUUGGUUUAGUACCGGUGCACUCCAGGUUUGGGAACCUUAAAGGAUGGGGAUGGGAACCUUCCCAUACUUUCACAGCAACAGAGGAUUGAGCAUCA

The target of the assay is T1, UNK ZnF1-3. The experiment in a line: nsRBNS (natural sequence RNA bind-n-seq); RBNS binding buffer (assumed for nsRBNS): 25 mM Tris pH 7.5, 150 mM KCl, 3 mM MgCl2, 0.01% Triton X-100, 500 ug/ml BSA, 20 U/ml SUPERase-In, 4 C; UNK is unkempt and MSI1 is Musashi-1; names of the RNAs are library labels; protein concentration not given here; high values mean tight binding.
Molecule B1 registered a binding signal of 0.558 enrichment R. B2 registered a binding signal of 1.21 enrichment R. Under B3 stands 0.832 enrichment R.

Regarding B4, the binding signal was 0.786 enrichment R. Consider B5, for which the binding signal stood at 0.782 enrichment R. Under B6 stands 1.83 enrichment R.

The molecule B7 gave a binding signal of 0.866 enrichment R.

Molecule B8 gave a binding signal of 1.78 enrichment R. To B9 belongs 0.587 enrichment R. As for B10, the binding signal turned out to be 0.98 enrichment R.

Turning to B11, the binding signal was 1.58 enrichment R. Molecule B12 returned a binding signal of 1.68 enrichment R. The molecule B13 came in with a binding signal of 2.72 enrichment R.

In turn, B14 came in with a binding signal of 0.656 enrichment R.
